# These are yes or no findings as the source states them, for the method shown. Binding seen in cells or lysates may run through a third protein. Some entries that bind do so weakly or less than the wild type.
# The chains behind the UniProt entries cited, without tags or fusion partners.
# UniProt Q15561: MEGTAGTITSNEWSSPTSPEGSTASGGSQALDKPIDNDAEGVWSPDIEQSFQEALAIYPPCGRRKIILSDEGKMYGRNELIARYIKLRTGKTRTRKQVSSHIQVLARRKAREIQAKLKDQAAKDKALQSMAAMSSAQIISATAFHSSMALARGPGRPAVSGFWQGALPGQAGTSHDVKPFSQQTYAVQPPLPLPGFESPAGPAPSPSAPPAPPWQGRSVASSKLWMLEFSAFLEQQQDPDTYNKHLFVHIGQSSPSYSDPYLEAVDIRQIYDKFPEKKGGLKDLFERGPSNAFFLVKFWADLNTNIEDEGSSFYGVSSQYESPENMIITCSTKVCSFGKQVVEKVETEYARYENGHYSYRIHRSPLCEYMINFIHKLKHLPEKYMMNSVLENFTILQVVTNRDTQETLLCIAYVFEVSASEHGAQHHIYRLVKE
# UniProt P23771: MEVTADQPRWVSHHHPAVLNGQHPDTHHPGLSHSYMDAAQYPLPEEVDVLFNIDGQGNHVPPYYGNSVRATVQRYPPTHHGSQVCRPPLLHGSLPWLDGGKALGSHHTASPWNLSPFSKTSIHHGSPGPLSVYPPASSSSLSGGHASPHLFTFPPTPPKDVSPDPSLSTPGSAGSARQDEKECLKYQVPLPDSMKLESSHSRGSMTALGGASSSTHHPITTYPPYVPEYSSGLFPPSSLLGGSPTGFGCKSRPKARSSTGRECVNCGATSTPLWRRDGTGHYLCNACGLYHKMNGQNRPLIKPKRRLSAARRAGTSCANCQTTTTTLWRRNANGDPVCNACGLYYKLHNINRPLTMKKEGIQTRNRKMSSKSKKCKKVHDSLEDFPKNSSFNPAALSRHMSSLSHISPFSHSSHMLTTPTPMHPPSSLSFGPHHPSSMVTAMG
# UniProt Q92754: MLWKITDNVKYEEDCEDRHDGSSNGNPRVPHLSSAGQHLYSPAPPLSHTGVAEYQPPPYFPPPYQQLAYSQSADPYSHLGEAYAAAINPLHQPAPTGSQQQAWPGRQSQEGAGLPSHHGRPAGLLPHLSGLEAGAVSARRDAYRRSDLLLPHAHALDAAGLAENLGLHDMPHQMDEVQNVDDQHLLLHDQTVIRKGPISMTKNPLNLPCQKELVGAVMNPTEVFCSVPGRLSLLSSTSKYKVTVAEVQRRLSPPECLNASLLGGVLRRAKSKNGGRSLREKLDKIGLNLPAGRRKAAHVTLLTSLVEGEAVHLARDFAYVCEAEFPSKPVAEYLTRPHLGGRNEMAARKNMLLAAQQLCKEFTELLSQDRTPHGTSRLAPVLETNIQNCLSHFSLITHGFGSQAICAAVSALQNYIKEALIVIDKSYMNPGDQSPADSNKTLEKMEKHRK
# UniProt Q9GZV5: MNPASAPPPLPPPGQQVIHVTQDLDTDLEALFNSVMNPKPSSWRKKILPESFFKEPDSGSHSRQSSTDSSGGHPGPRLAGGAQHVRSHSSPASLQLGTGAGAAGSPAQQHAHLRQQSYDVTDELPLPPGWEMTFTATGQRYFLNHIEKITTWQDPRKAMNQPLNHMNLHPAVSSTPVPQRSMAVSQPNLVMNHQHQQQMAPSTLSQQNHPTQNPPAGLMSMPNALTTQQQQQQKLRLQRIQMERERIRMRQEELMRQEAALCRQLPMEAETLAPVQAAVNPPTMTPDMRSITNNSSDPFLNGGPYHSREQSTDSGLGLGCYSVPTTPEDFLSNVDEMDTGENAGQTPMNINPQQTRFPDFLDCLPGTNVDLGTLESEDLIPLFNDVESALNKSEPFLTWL
# UniProt P46937: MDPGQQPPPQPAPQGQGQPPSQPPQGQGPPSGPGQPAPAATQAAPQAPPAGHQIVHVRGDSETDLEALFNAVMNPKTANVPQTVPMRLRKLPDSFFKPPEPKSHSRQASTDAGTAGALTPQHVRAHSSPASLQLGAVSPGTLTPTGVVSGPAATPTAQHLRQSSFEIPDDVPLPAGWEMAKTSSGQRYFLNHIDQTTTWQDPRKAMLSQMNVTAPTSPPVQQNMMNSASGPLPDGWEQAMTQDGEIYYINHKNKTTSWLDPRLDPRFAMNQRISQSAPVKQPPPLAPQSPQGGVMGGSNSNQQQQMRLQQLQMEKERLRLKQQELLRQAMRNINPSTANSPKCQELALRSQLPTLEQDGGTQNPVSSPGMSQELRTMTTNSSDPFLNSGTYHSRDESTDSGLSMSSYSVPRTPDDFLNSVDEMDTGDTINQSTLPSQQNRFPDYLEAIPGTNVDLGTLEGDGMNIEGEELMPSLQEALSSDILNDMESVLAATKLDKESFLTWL
# T1: VGLL1 (vestigial-like family member 1) (human (endogenous in TELC-D5 cells and TSCs derived from H9 ESCs and UH10 iPSCs)) (UniProt Q99990)
# T1 sequence: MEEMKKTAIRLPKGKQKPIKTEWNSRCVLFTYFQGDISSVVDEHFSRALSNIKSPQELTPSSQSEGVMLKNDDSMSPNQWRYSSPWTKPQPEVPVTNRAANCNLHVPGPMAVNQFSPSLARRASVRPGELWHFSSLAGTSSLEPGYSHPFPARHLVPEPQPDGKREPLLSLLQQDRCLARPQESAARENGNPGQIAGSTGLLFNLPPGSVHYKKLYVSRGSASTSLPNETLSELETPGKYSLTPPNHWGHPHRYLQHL
# Experiments:
# [1] = target: TEAD4 (TEA domain transcription factor 4) (human (endogenous in TELC-D5 cells and TSCs derived from H9 ESCs and UH10 iPSCs)) (UniProt Q15561); experiment: co-IP; endogenous proteins in lysates of TELC-D5 cells (day 5 of TELC induction from 4CL H9 ESCs and UH10 iPSCs); TNE lysis buffer (50 mM Tris-HCl pH 7.5, 250 mM NaCl, 0.5% NP-40, 1 mM EDTA) diluted with the same volume of TNEG buffer; primary antibody overnight at 4 °C, protein A/G magnetic beads 3 h at 4 °C; Western blotting
# [2] = target: T1, VGLL1 (vestigial-like family member 1) (human (endogenous in TELC-D5 cells and TSCs derived from H9 ESCs and UH10 iPSCs)); experiment: as above
# [3] = target: TEAD4 (TEA domain transcription factor 4) (human (endogenous in TELC-D5 cells and TSCs derived from H9 ESCs and UH10 iPSCs)) (UniProt Q15561); experiment: co-IP; endogenous proteins in lysates of TSCs derived from H9 ESCs and UH10 iPSCs; TNE lysis buffer (50 mM Tris-HCl pH 7.5, 250 mM NaCl, 0.5% NP-40, 1 mM EDTA) diluted with the same volume of TNEG buffer; primary antibody overnight at 4 °C, protein A/G magnetic beads 3 h at 4 °C; Western blotting
# [4] = target: TEAD4 (TEA domain transcription factor 4) (human (endogenous in TELC-D5 cells and TSCs derived from H9 ESCs and UH10 iPSCs)) (UniProt Q15561); experiment: co-IP; endogenous proteins in lysates of TELC-D5 cells (day 5 of TELC induction from 4CL H9 ESCs and UH10 iPSCs); TNE lysis buffer (50 mM Tris-HCl pH 7.5, 250 mM NaCl, 0.5% NP-40, 1 mM EDTA) diluted with the same volume of TNEG buffer; primary antibody overnight at 4 °C, protein A/G magnetic beads 3 h at 4 °C; Western blotting; remark: listed apart in the source
binding [1],binding [2],binding [3],binding [4],Molecule
binds,binds,,,GATA3 (from UniProt P23771 1-443)
binds,binds,,,TFAP2C (from UniProt Q92754 1-450)
binds,no binding,binds,,WWTR1 (from UniProt Q9GZV5 1-400)
,no binding,,,YAP (from UniProt P46937 1-504)
,,binds,binds,"VGLL1 (vestigial-like family member 1) (protein, UniProt Q99990 1-258) MEEMKKTAIRLPKGKQKPIKTEWNSRCVLFTYFQGDISSVVDEHFSRALSNIKSPQELTPSSQSEGVMLKNDDSMSPNQWRYSSPWTKPQPEVPVTNRAANCNLHVPGPMAVNQFSPSLARRASVRPGELWHFSSLAGTSSLEPGYSHPFPARHLVPEPQPDGKREPLLSLLQQDRCLARPQESAARENGNPGQIAGSTGLLFNLPPGSVHYKKLYVSRGSASTSLPNETLSELETPGKYSLTPPNHWGHPHRYLQHL"
